Measurements published in the supplement of paper PMC8728848.
This is one part of the list.

Key:
Experiment in all cases: glycan array binding signal (z-score within array); higher = stronger binding
Details in all cases: glycan notation: IUPAC condensed, linker removed
[1] = biological target: Gal(b1-4)GlcNAc(b1-3)Gal(b1-4)GlcNAc(b1-3)Gal(b1-4)GlcNAc(b1-3)Gal(b1-4)GlcNAc(b1-2)Man(a1-3)[Gal(b1-4)GlcNAc(b1-3)Gal(b1-4)GlcNAc(b1-3)Gal(b1-4)GlcNAc(b1-3)Gal(b1-4)GlcNAc(b1-2)Man(a1-6)]Man(b1-4)GlcNAc(b1-4)GlcNAc
Summary of the method: (§1)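 Negative Z-scores can be read as non-binding. The Z-score is calculated within each array and then averaged across arrays of one protein sequence at different concentrations or buffers and across linkers. Arrays, 3228 in all, were curated from the Consortium for Functional Glycomics database and kept only where the protein sequence was available.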

[2] = biological target: Gal(b1-4)GlcNAc(b1-3)Gal(b1-4)GlcNAc(b1-3)Gal(b1-4)GlcNAc(b1-3)Gal(b1-4)GlcNAc(b1-2)Man(a1-3)[Gal(b1-4)GlcNAc(b1-3)Gal(b1-4)GlcNAc(b1-3)Gal(b1-4)GlcNAc(b1-3)Gal(b1-4)GlcNAc(b1-2)Man(a1-6)]Man(b1-4)GlcNAc(b1-4)[Fuc(a1-6)]GlcNAc
Summary of the method: as §1

[3] = biological target: Gal(b1-4)GlcNAc(b1-3)Gal(b1-4)GlcNAc(b1-3)Gal(b1-4)GlcNAc(b1-3)Gal(b1-4)GlcNAc(b1-2)[Gal(b1-4)GlcNAc(b1-3)Gal(b1-4)GlcNAc(b1-3)Gal(b1-4)GlcNAc(b1-3)Gal(b1-4)GlcNAc(b1-6)]Man(a1-6)[Gal(b1-4)GlcNAc(b1-3)Gal(b1-4)GlcNAc(b1-3)Gal(b1-4)GlcNAc(b1-3)Gal(b1-4)GlcNAc(b1-2)Man(a1-3)]Man(b1-4)GlcNAc(b1-4)[Fuc(a1-6)]GlcNAc
Summary of the method: as §1

[4] = biological target: Gal(b1-4)GlcNAc(b1-3)Gal(b1-4)GlcNAc(b1-3)Gal(b1-4)GlcNAc(b1-3)Gal(b1-4)GlcNAc(b1-3)Gal(b1-4)GlcNAc(b1-2)Man(a1-3)[Gal(b1-4)GlcNAc(b1-3)Gal(b1-4)GlcNAc(b1-3)Gal(b1-4)GlcNAc(b1-3)Gal(b1-4)GlcNAc(b1-3)Gal(b1-4)GlcNAc(b1-2)Man(a1-6)]Man(b1-4)GlcNAc(b1-4)GlcNAc
Summary of the method: as §1

[5] = biological target: Gal(b1-4)GlcNAc(b1-3)Gal(b1-4)GlcNAc(b1-3)Gal(b1-4)GlcNAc(b1-3)Gal(b1-4)GlcNAc(b1-3)Gal(b1-4)GlcNAc(b1-2)Man(a1-3)[Gal(b1-4)GlcNAc(b1-3)Gal(b1-4)GlcNAc(b1-3)Gal(b1-4)GlcNAc(b1-3)Gal(b1-4)GlcNAc(b1-3)Gal(b1-4)GlcNAc(b1-2)Man(a1-6)]Man(b1-4)GlcNAc(b1-4)[Fuc(a1-6)]GlcNAc
Summary of the method: as §1

[6] = biological target: Gal(b1-4)GlcNAc(b1-3)Gal(b1-4)GlcNAc(b1-3)Gal(b1-4)GlcNAc(b1-3)Gal(b1-4)GlcNAc(b1-3)Gal(b1-4)GlcNAc(b1-2)[Gal(b1-4)GlcNAc(b1-3)Gal(b1-4)GlcNAc(b1-3)Gal(b1-4)GlcNAc(b1-3)Gal(b1-4)GlcNAc(b1-3)Gal(b1-4)GlcNAc(b1-6)]Man(a1-6)[Gal(b1-4)GlcNAc(b1-3)Gal(b1-4)GlcNAc(b1-3)Gal(b1-4)GlcNAc(b1-3)Gal(b1-4)GlcNAc(b1-3)Gal(b1-4)GlcNAc(b1-2)Man(a1-3)]Man(b1-4)GlcNAc(b1-4)[Fuc(a1-6)]GlcNAc
Summary of the method: as §1

[7] = biological target: Gal(b1-4)GlcNAc(b1-3)Gal(b1-4)GlcNAc(b1-3)Gal(b1-4)GlcNAc(b1-3)Gal(b1-4)GlcNAc(b1-3)Gal(b1-4)GlcNAc(b1-3)Gal(b1-4)GlcNAc(b1-2)Man(a1-3)[Gal(b1-4)GlcNAc(b1-3)Gal(b1-4)GlcNAc(b1-3)Gal(b1-4)GlcNAc(b1-3)Gal(b1-4)GlcNAc(b1-3)Gal(b1-4)GlcNAc(b1-3)Gal(b1-4)GlcNAc(b1-2)Man(a1-6)]Man(b1-4)GlcNAc(b1-4)GlcNAc
Summary of the method: as §1

[8] = biological target: Gal(b1-4)GlcNAc(b1-3)Gal(b1-4)GlcNAc(b1-3)GalNAc
Summary of the method: as §1

[9] = biological target: Gal(b1-4)GlcNAc(b1-3)Gal(b1-4)GlcNAc(b1-3)[Gal(b1-4)GlcNAc(b1-3)Gal(b1-4)GlcNAc(b1-6)]GalNAc
Summary of the method: as §1

[10] = biological target: Gal(b1-4)GlcNAc(b1-3)Gal(b1-4)GlcNAc(b1-6)[Gal(b1-3)]GalNAc
Summary of the method: as §1

[11] = biological target: Gal(b1-4)GlcNAc(b1-3)Gal(b1-4)[Fuc(a1-3)]GlcNAc(b1-3)Gal(b1-4)[Fuc(a1-3)]GlcNAc
Summary of the method: as §1

[12] = biological target: Gal(b1-4)GlcNAc(b1-3)GalNAc
Summary of the method: as §1

[13] = biological target: Gal(b1-4)GlcNAc(b1-3)[Fuc(a1-3)GlcNAc(b1-6)]Gal(b1-4)Glc
Summary of the method: as §1

[14] = biological target: Gal(b1-4)GlcNAc(b1-3)[Gal(b1-4)GlcNAc(b1-6)]Gal(b1-4)GlcNAc
Summary of the method: as §1

[15] = biological target: Gal(b1-4)GlcNAc(b1-3)[GlcNAc(b1-6)]Gal(b1-4)GlcNAc
Summary of the method: as §1

[16] = biological target: Gal(b1-4)GlcNAc(b1-6)Gal(b1-4)GlcNAc
Summary of the method: as §1

[17] = biological target: Gal(b1-4)GlcNAc(b1-6)GalNAc
Summary of the method: as §1

[18] = biological target: Gal(b1-4)GlcNAc(b1-6)[Gal(b1-3)]GalNAc
Summary of the method: as §1

[19] = biological target: Gal(b1-4)GlcNAc(b1-6)[Gal(b1-4)GlcNAc(b1-3)]GalNAc
Summary of the method: as §1

[20] = biological target: Gal(b1-4)GlcNAc6P
Summary of the method: as §1

[21] = biological target: Gal(b1-6)Gal
Summary of the method: as §1

[22] = biological target: Gal3S(b1-3)GalNAc
Summary of the method: as §1

[23] = biological target: Gal3S(b1-3)GlcNAc
Summary of the method: as §1

B1: InvD YPIII (Yersinia pseudotuberculosis), B1JSC0 (protein)
chain: MIKYFSFFKKPEPIVGILPNRQSHHILPTHIRRVAWGTLLLQLFIPLSVSFSPAIAAMKASKADTMVSYSSTEPYVLGSGETVAMVAKKYGITVDELKKINIYRTFSRPFTALTTGDEIDIPRKASPFSVDNNKDNRLSVENTLAGHAVAGATALSNGDVAKSGERMVRSAASNEFNNSAQQWLSQFGTARVQLNINDDFHLDGSAADVLIPLYDNEKSILFTQLGARNKDSRNTVNMGAGVRTFQGNWMYGANTFFDNDLTGKNRRIGVGAEAWTDYLKLSANNYFGITDWHQSRDFIDYNERPANGYDLRAEAYLPSYPQLGGKAMYEKYRGDDVALFGKDNRQKNPHAITAGVNYTPIPLVTIGAEHRAGKGGQNDSNINFQLNYRLGETWQSHIDPSAVAASRTLAGSRYDLVERNNHIVLDYQKQNLVRLSLPDSLAGDPFSQLSVTAQVTATHGLERIDWQSAELMAAGGVLKQTSKNGLEITLPEYQMNRTGGNSYILNAIAYDTQGNASSQASMLITVNAQKINIANSTLVAVPINIEANNSDTSVVTLTLKDDNNIPVTGQDVTFLSPLGTLSAMTDSGNGVYTATLTAGTVSGTTAVSSNINGSALDMTPATVTLNGNSGELSITHSMLVAAPVNIEANGSDTSVVTLTLRDSNNNPVTGQTVTFAGTLGTLGAVTEGSSGVYTATLTAGIMVGTSSITASVNSTALGVTPATVTLNGDSGNLSTTNSTLVAAPVNIEANSSDTSVVTLTLRDNNNNPVTGQTVVFTSTLGTLGNVTEQASGVYTATLTAGTVSGVASLSVSVGGNALGVTPATVTLNGDSGNLSTTNSTLVAAPVNIEANSSDTSVVTLTLRDNNNNPVTGQTVNFAGTLGTLGTVSEGSSGVYTTTLTAGTVAGVASLSVNVGGNALGVTPATVTLNGNSGNLSATNSTLVAAPVNIEANSSDTSVVTLTLRDNNNNPVTGQTVAFTSTLGTLGNVTEQASGVYTATLTAGTVSGVASLSVSVNSNALGVTPATVTLNGDSGNLSTTNSTLVAAPVNIEANSSDTSVVTLTLRDNNNNPVTGQTVAFTSTLGTLGNVTEQASGLYTATLTAGTVSGVASLSVNVGGNALGVTPATVTLNGDSGNLSATNSTLVAAPVNIEANSSDTSVVTLTLRDNNNNPVTGQTVAFTSTLGTLGNVTEQASGLYTATLTAGTVSGVASLSVNVGGTALGVTPATVTLNGDSGNLSTTNSTLVAAPVNIEANSSDTSVVTLTLRDNNNNPVTGQTVAFTSTLGTLGNVTEQASGLYTATLTAGTVSGVASLSVSVNSTALGVTPATVTLNGDSGNLSTTNSTLVAAPVNIEANSSDTSVVTLTLRDNNNNPVTGQTVAFTSTLGTLGNVTEQASGVYTATLTAGTVAGVASLSVNVGGNALGVTPATVTLNGDSGNLSTTNSTLVAAPVNIEANSSDTSVVTLTLRDNNNNPVTGQTVAFTSTLGTLGNVTEQASGVYTATLTAGTVSGVASLSVSVGSSALGVTPATVTLNGDSGNLSTTNSTLVAAPVNIEANNSDTSVVTLTLRDNNNNPVTGQTVAFTSTLGTLGNVTEQASGVYTATLTAGTVSGVASLSVSVNSNALGVTPATVTLNGDSGNLSTTNSTLVAAPVNIEANSSDTSVVTLTLRDNNNNPVTGQTVVFTSTLGTLGNVTEQASGLYTATLTAGTVSGVASLSVSVGGNALGVTGNITLAPGALDAARSILAVNKPSINADDRIGSTITFTAQDAQGNAITGLDIAFMTDLENSQIMTLVDHNDGTYTANINGTQTGIANIAVQSSGATIAGLAATMVTITPGAWNTTQATPVMTVALPITTCQSSSGVYKRYYIGIVTHELYDNYGNEISGILTYNLGAGRYTTVTSQNSSVSGSNGLTRRSNSPVSHFILTSDAYTSQAACYAERIANVNVTITVTAITDDFKTSAVNKVFILGTGSN
[1]
  glycan array binding signal (z-score): 0.103
[2]
  glycan array binding signal (z-score): 0.231
[3]
  glycan array binding signal (z-score): 0.748
[4]
  glycan array binding signal (z-score): -0.134
[5]
  glycan array binding signal (z-score): -0.094
[6]
  glycan array binding signal (z-score): 0.512
[7]
  glycan array binding signal (z-score): 0.268
[8]
  glycan array binding signal (z-score): 1.27
[9]
  glycan array binding signal (z-score): 1.71
[10]
  glycan array binding signal (z-score): 1.51
[11]
  glycan array binding signal (z-score): -0.275
[12]
  glycan array binding signal (z-score): -0.218
[13]
  glycan array binding signal (z-score): -0.177
[14]
  glycan array binding signal (z-score): -0.248
[15]
  glycan array binding signal (z-score): 0.284
[16]
  glycan array binding signal (z-score): -0.031
[17]
  glycan array binding signal (z-score): -0.087
[18]
  glycan array binding signal (z-score): -0.231
[19]
  glycan array binding signal (z-score): -0.222
[20]
  glycan array binding signal (z-score): -0.305
[21]
  glycan array binding signal (z-score): -0.134
[22]
  glycan array binding signal (z-score): -0.322
[23]
  glycan array binding signal (z-score): -0.26
